Data on 47 molecules can be found in PubChem BioAssay AID1963576 (National Center for Advancing Translational Sciences (NCATS), 2024).

SMILES strings stand for the structures. About 60 (0.1%) of roughly 46,000 compounds were called active. Not shown: some 3% with an inconclusive outcome. Calls follow the shape of the dose curve; as a rule, active = well fitted inhibition curve with a large enough effect; inconclusive = small, poorly fitted or top-dose-only effect; inactive = no such curve, though single readings can be large or run the other way. Some of the results follow.

A short description of the assay: Primary qHTS assay for Inhibitors of ovarian cancer metastasis using an organotypic tumor microenvironment (TME) model. Also: nearly all actives have a fitted effect of over 65% in size.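 As to activity change, negative = inhibition: plate controls were DMSO wells for no effect and tomatine positive control wells for full effect.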 The conditions noted are these: SKOV3ip1-GFP adhesion/invasion on 3D omental model, fluorescence; series mostly up to 45.8 µM; activity change, negative = inhibition: at the top concentration. In outline: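 A 3D layer of primary human omental fibroblasts, mesothelial cells, fibronectin and collagen I, grown 48 hr, received SKOV3ip1-GFP cells in serum-free medium plus compounds at 0.36-46 umol/L. After 2 hr RT and 16 hr 37 C, fixed adherent GFP cells were counted; normalized to DMSO and tomatine.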
With `COc1ccc(CC(=O)NCC(c2ccc(N(C)C)cc2)N2CCOCC2)cc1OC` (configuration not stated), the molecule was called inactive.

Regarding `Cc1cc(C)c(NC(=O)Cn2nnc(C(=O)NCc3cccs3)c2N)c(C)c1`, the “activity change, negative = inhibition” value was inactive: -6.57%. In the case of `Cc1ccc(CNC(=O)c2c(-c3ccc(F)cc3F)noc2C)o1`, the “activity change, negative = inhibition” value was inactive: 0.887%. Take `COc1ccc(-c2cn3nc(N4CCCC(C(=O)Nc5cc(Cl)ccc5OC)C4)sc3n2)cc1` (configuration not stated): the molecule was called inactive. With `O=C(NCc1cccc(Cl)c1)C1CCN(c2nn3cc(-c4ccc(F)cc4)nc3s2)CC1`, the “activity change, negative = inhibition” value was inactive: 0.123%.

As to `CCN(CC)c1ccc2cc(-c3nc(-c4ccccc4)no3)c(=O)oc2c1`, the “activity change, negative = inhibition” value was inactive: 14.1%. Same read-out and setting: to `O=C(NCc1ccccc1)c1cccc(N2CCCS2(=O)=O)c1` belongs inactive: 22.4%. On the same count and under the same terms, to `O=c1ccc2cc(S(=O)(=O)NCc3ccc(Cl)cc3)ccc2[nH]1` belongs inactive: -9.65%.

Regarding `Cc1nc2cccnc2n1C1CCN(C(=O)Nc2ccccc2C(F)(F)F)CC1`, the molecule was classed as inactive. `CCOc1ccc(-n2nc(CO)c(C(=O)NCC(c3ccccc3)c3ccccc3)n2)cc1`: the “activity change, negative = inhibition” value was inactive: -4.23%. On the same count and under the same terms, to `COc1ccc(C(=O)COC(=O)CCCC(=O)Nc2ccc(C(C)=O)cc2)cc1` belongs inactive: 9.2%; to `Cc1cc(C)c(NC(=O)COCc2cc(-c3cccs3)on2)c(C)c1`, inactive: -2.29%; to `COC(=O)c1scc(-c2ccc(C)cc2)c1S(=O)(=O)Nc1ccc(NC(C)=O)cc1`, inactive: -26.6%. Regarding `COc1ccc(-n2ncc(C(=O)NCc3ccc4c(c3)OCO4)c2C2CCN(C(=O)OC(C)(C)C)CC2)cc1`, the result was inactive. In the case of `CCc1cccc(N2C(=O)CSC23C(=O)N(Cc2ccccc2F)c2ccccc23)c1` (configuration not stated), the molecule was called inactive. As for `COc1ccc(S(=O)(=O)N(CC(=O)NCCSc2ccccc2)c2ccc(Cl)cc2)cc1`, the “activity change, negative = inhibition” value is inactive: -9.43%.

As for `O=C(CSc1nccn1Cc1ccc(F)cc1)NCc1ccccc1`, the “activity change, negative = inhibition” value is inactive: 0.511%. For `Cc1cccc(OCC(=O)Nc2cccc(C(=O)OCc3cc(=O)n4c(C)csc4n3)c2)c1`, the call was inactive. The same measure, in the same setting: for `O=c1c(NCCc2ccc(Cl)cc2)nccn1-c1ccccc1` the value was “inactive”. `COC(=O)c1ccc(-n2nnc(-c3nsc(NC(=O)c4ccc(Cl)cc4)n3)c2C)cc1`: the “activity change, negative = inhibition” value was inactive: 5.65%.

`COc1ccccc1NC(=O)CCNS(=O)(=O)c1ccc2c(c1)CCN2C(=O)C1CC1`: the “activity change, negative = inhibition” value is inactive: 6.07%. Same read-out and setting: to `CCN(CC)C(=O)c1sc2c(c1C)c(=O)n(Cc1ccccc1)c(=O)n2CC(=O)Nc1ccc(OC)cc1` belongs inactive: 5.48%; to `Cc1ccccc1CNC(=O)Cc1csc2ccccc12`, inactive: -1.26%; to `CCCSc1ncc(Cl)c(C(=O)Nc2sc3c(c2C(N)=O)CCCC3)n1`, inactive: -12%. On the same count and under the same terms, to `CCOC(=O)c1c(C)oc2ccc(N(C(=O)c3ccncc3)S(=O)(=O)c3ccc(F)cc3)cc12` belongs inactive: -3.64%.

For `CCN(Cc1ccccc1)C(=O)CCS(=O)(=O)c1cc(Br)cc2c1N(C(=O)C1CC1)CC2`, the “activity change, negative = inhibition” value was inactive: 16.2%. Still for that read-out and setting: for `CN(c1ccccc1)S(=O)(=O)c1nnc(NC(=O)c2cccs2)s1` the value was inactive: -4.17%; for `Cc1cc2n(n1)CCCN2C(=O)Nc1ccc(C)c(Cl)c1`, inactive: -8.05%. In the case of `Cc1ccc(C)c(N2CCN(S(=O)(=O)c3ccc(F)c(C(=O)Nc4ccc(Cl)cc4Cl)c3)CC2)c1`, the “activity change, negative = inhibition” value is inactive: 0.775%.

As to `COc1ccc(OC)c(CCNC(=O)c2cc3cccc4c3n2CCS4)c1`, the “activity change, negative = inhibition” value is inactive: -0.619%.

Take `CCc1ccc(NC(=O)Cn2nnc(C(=O)NCCc3ccccc3)c2N)cc1`: the “activity change, negative = inhibition” value was inactive: 6.98%. For the molecule `N#Cc1ccccc1Cn1c(=O)n(-c2ccccc2)c(=O)c2c3c(sc21)CCC3`, the molecule was classed as inactive. In the case of `O=C(NCc1cccc(F)c1)C1CCN(c2nn3cc(-c4ccc(F)cc4)nc3s2)CC1`, the “activity change, negative = inhibition” value was inactive: -1.09%. With `CCc1ccccc1N(C)C(=O)c1cc2c(Cl)nc3ccc(C)cc3c2s1`, the “activity change, negative = inhibition” value was inactive: -2.55%. Same read-out and setting: to `Cc1ccc2[nH]c3c(=O)n(CC(=O)NCCCN4CCN(c5ccc(F)cc5)CC4)ncc3c2c1` belongs inactive: 8.44%. For the molecule `CCOc1ccccc1NC(=O)Cn1c(=O)n(CCCCC(=O)NCCCOC)c(=O)c2ccccc21`, the result was inactive. With `COCCCNC(=O)C1CCN(C(=O)c2ccc(-n3ccc4ccccc43)s2)CC1`, the “activity change, negative = inhibition” value was inactive: -8.27%. `Cc1cccc(C)c1NC(=O)c1nc(SC(C)C)ncc1Cl`: the “activity change, negative = inhibition” value is inactive: 4.39%. As for `O=C(Nc1ccc(O)c(-c2nc3ccccc3o2)c1)c1ccc(-c2cccc(Cl)c2)o1`, the “activity change, negative = inhibition” value is inactive: 9.19%.

With `CC1CCN(S(=O)(=O)c2ccc3c(c2)oc(=O)n3CC(=O)N2CCCCC2)CC1`, the “activity change, negative = inhibition” value is inactive: 0.836%. Same read-out and setting: to `Cc1ccccc1CNCCSc1nnnn1C` belongs inactive: 32.5%.

As to `CCC(C(=O)Nc1ccc(F)cc1F)n1nc(-c2ccccc2)c2c(c1=O)CCCC2` (configuration not stated), the outcome was inactive.

For the molecule `COc1cc2c(N3CCN(C(=O)Nc4ccc(OC(C)C)cc4)CC3)ncnc2cc1OCCCN1CCCCC1`, the “activity change, negative = inhibition” value was inactive: -9.88%. For the molecule `COc1ccc(NC(=O)CCS(=O)(=O)c2cc3c4c(c2)CCN4C(=O)CC3)cc1OC`, the molecule was classed as inactive.

For `COc1cccc(CNC(=O)CSc2nnc(C)c3c(C)n(-c4ccccc4)nc23)c1`, the “activity change, negative = inhibition” value is inactive: 0.974%. On the same count and under the same terms, for `Cc1ccccc1Nc1c(-c2ccc(O)cc2)nc2c(C)cccn12` the value was inactive: 3.42%; for `Cc1cc(O)c2c(c1)C(=O)c1cccc(O)c1C2=O`, inactive: -4.52%.
